Over roughly 2,300 sequences, “median log2 fold change of GCK-ALFA target abundance (FLAG IP / Myc IP barcode read proportion)” has its median near 0.095; the lowest 2% begin near -0.47. The list shows a part of the results.
B1: LC3A_28_1321 (protein)
chain: SHVEEELAKAKAEAEEQAAQGEDITITVKVSGSTTLEEALALMEGLREIVEKYAPTRKVHIIVDLDGGVKQEVIDAIAEKAEEIEKEFPNATVILALDEE
B2: LC3A_45_1977 (protein)
chain: MAEATLDVLVPRELAEAALEALKRGAERLLEERGPGVEVDLEALEESYRATRDEEEVLLTVRIRAPTRQEALDLADELVEELERELGRPVAAAISVEELP
B3: LC3A_3_1830 (protein)
chain: MEEELEETLKLLKEAGHSEETLEALKETVKKLLEKGYEEAAKTLLELVREAIHLPSELLLEALEEVLKYVEENDDSEEETTEKIKEIFNLYRNEYEIEEL
B4: LC3A_132_250 (protein)
chain: SEELLEKALKELKEKLEKVVDALKAGEDWLPLIKELDELAEEYAEKLSLEDTEELVEESEKYAEKLFAERLDPNDVEARRALDIIEMLLDGVLIEKELKS
B5: LC3A_free_46_2382 (protein)
chain: YKANIDIDFGAMDKETAEKMAEEIKKAAKEIAKKTGVEIKVDIEIITDEEGETYLNVNITIEGEDKEKVKKAVNELLDKIDEIAEKANVSYIISVDFEDT
B6: LC3A_28_932 (protein)
chain: MTVEEIIARIRATADAAIAAGEDALIEVEIGPDTTVEEARRIMEELEEEVARLSAAGLKVDVVIDLDDVSQEVLDTVMDRAEEIEAAYPQANVIIALDEE
B7: LC3A_3_1651 (protein)
chain: MEEKIEKLLKRLKEKGKSEEVLEAVRKALEALKEKGYEEALEKFIELLEELEDLSDELLLELAEEVLELVETSDLSEEELTKEIEEIAKTIRNEGEIIEL
B8: LC3A_3_1471 (protein)
chain: EDPLIAEAEAALKAAGVPPEAVAEIVAALRRLAEHGVLEAAVEELKEALKSPNATPEKLVRLARELAERVEREGLTPEEAREEARVLRLEYIEIEEIDEE

Each binder was assayed against MAP1LC3A, Q9H492 (assay: median log2 fold change of GCK-ALFA target abundance (FLAG IP / Myc IP barcode read proportion) (log2 ratio); each designed protein is fused to an ALFA-tag nanobody in HEK293 cells to bring the named protein to FLAG-tagged glucokinase (GCK); Myc marks an untargeted standard; higher = target protein stabilised (more abundant)). Settings: target protein: 3xFLAG-MCP-GCK-ALFA reporter; HEK293 landing pad (RPLP).
In short: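 HEK293 landing-pad cells received a recombined binder library fused to the ALFA nanobody and were induced with 2 μg mL^−1 doxycycline, then transfected with a plasmid encoding a FLAG-tagged target and a Myc-tagged standard. Lysates were collected after 48 h for anti-FLAG and anti-Myc immunoprecipitation, and the circular RNA barcodes were reverse transcribed, amplified and sequenced. Target abundance for each binder is the median log2 ratio of FLAG to Myc barcode read proportions. Barcodes had to reach a proportion of at least 10^−7 in both replicates, each binder needed at least 3 barcodes per replicate, a pseudocount of 10^−6 was applied, and the two replicates were pooled.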

| Binder | median log2 fold change |
| --- | --- |
| B1 | 0.122 |
| B2 | 0.107 |
| B3 | 0.267 |
| B4 | -0.0868 |
| B5 | 0.206 |
| B6 | -0.205 |
| B7 | 0.199 |
| B8 | 0.0692 |

Reference: the supplement of paper PMC12632987
